Consider 25 compounds from the antibiotic and cytotoxicity screens of Wong et al. (2023).

In one assay the test system is HSkMC. Put plainly: cytotoxicity call (relative viability < 0.9). The note with it: 10 µM.
A further assay deals with HepG2. Put plainly: cytotoxicity call (relative viability < 0.9). Conditions: 10 µM.
The next assay has as its system S. aureus RN4220. The experiment in a line: growth inhibition call (relative growth <= 0.2). Conditions: 50 µM.

SMILES strings stand for the structures. This is one part of the list.

For `O=C(N/N=C/[C@H](O)[C@@H](O)[C@H](O)CO)c1ccccn1`, the cytotoxicity call in the assay with HSkMC and in the assay with HepG2 was “inactive” throughout. The growth inhibition call in the assay with S. aureus RN4220 was “inactive”.

On to `Cc1ccc(S(=O)(=O)N(C)C[C@@H]2Oc3ccc(NC(=O)CCN4CCOCC4)cc3CC(=O)N([C@@H](C)CO)C[C@H]2C)cc1`, for which the cytotoxicity call in the assay with HSkMC and in the assay with HepG2 was “inactive” in each case. Besides, in the assay with S. aureus RN4220, the growth inhibition call was “inactive”.

Take `C[C@@H]1CN([C@H](C)CO)C(=O)c2cc(NC(=O)C3CCCCC3)ccc2O[C@@H](C)CCCCO[C@H]1CN(C)Cc1ccc2c(c1)OCO2`: the cytotoxicity call with HSkMC and in the assay on HepG2 was “inactive” throughout. For the same compound, in the assay on S. aureus RN4220, the growth inhibition call is “inactive”.

For the compound `Cc1noc(C)c1NC(=O)N1C[C@H](O)COC[C@@H]2O[C@H](CC(=O)N[C@H]3CCN(Cc4ccccc4)C3)CC[C@H]21`, the cytotoxicity call in the assay with HSkMC and in the assay on HepG2 was “inactive” each time. Also, the growth inhibition call in the assay with S. aureus RN4220 is “inactive”.

In the case of `C[C@@H]1CN([C@@H](C)CO)C(=O)Cc2cc(NC(=O)C3CCCCC3)ccc2O[C@@H]1CN(C)C(=O)Nc1cccc2ccccc12`, the cytotoxicity call in the assay on HSkMC and with HepG2 was “inactive” each time. Moreover, the growth inhibition call with S. aureus RN4220 is “inactive”.

With `CN(C)CCCNC(=O)C[C@H]1CC[C@H]2[C@@H](COC[C@@H](O)CN2C(=O)Nc2cc(Cl)cc(Cl)c2)O1`, the cytotoxicity call with HSkMC and in the assay on HepG2 was “inactive” throughout. The growth inhibition call in the assay on S. aureus RN4220 is “inactive”.

In the case of `Cc1noc(C)c1S(=O)(=O)Nc1ccc2c(c1)C(=O)N([C@@H](C)CO)C[C@H](C)[C@@H](CN(C)Cc1ccccc1)O2`, the cytotoxicity call with HSkMC and with HepG2 was “inactive” in each case. Besides, the growth inhibition call with S. aureus RN4220 was “inactive”.

As for `C[C@@H]1CCCCO[C@@H](CN(C)Cc2ccc(C(=O)O)cc2)[C@H](C)CN([C@@H](C)CO)C(=O)c2cc(NC(=O)Nc3ccccc3)ccc2O1`, the cytotoxicity call in the assay on HSkMC and with HepG2 was “inactive” each time. Moreover, the growth inhibition call in the assay on S. aureus RN4220 was “inactive”.

On to `C[C@H]1CN([C@@H](C)CO)C(=O)Cc2cc(NC(=O)Cc3cn(C)c4ccccc34)ccc2O[C@H]1CN(C)Cc1ccc(C(=O)Nc2ccccc2N)cc1`, for which the cytotoxicity call with HSkMC and with HepG2 was “inactive” each time. The growth inhibition call in the assay on S. aureus RN4220 is “inactive”.

Regarding `C[C@@H]1CCCCO[C@H](CN(C)Cc2ccc(C(F)(F)F)cc2)[C@H](C)CN([C@H](C)CO)C(=O)c2cc(NS(C)(=O)=O)ccc2O1`, the cytotoxicity call with HSkMC and in the assay with HepG2 was “inactive” throughout. Further, the growth inhibition call in the assay with S. aureus RN4220 is “inactive”.

As for `C[C@H]1CN([C@@H](C)CO)C(=O)Cc2cc(NS(=O)(=O)c3ccc(F)cc3)ccc2O[C@H]1CN(C)Cc1ccc(-c2ccccc2)cc1`, in the assay on HSkMC, the cytotoxicity call is “active”. Further, the cytotoxicity call in the assay on HepG2 was “inactive”. The growth inhibition call in the assay on S. aureus RN4220 was “inactive”.

Consider `C[C@H]1CN([C@@H](C)CO)C(=O)c2cc(NS(=O)(=O)c3ccccc3)ccc2O[C@H]1CN(C)Cc1ccncc1`, for which the cytotoxicity call with HSkMC and in the assay with HepG2 was “inactive” each time. The growth inhibition call in the assay on S. aureus RN4220 was “inactive”.

Take `COc1ccc(NC(=O)N(C)C[C@H]2Oc3ccc(NS(=O)(=O)c4cn(C)cn4)cc3C(=O)N([C@H](C)CO)C[C@H]2C)cc1`: the cytotoxicity call in the assay on HSkMC and in the assay on HepG2 was “inactive” each time. The growth inhibition call with S. aureus RN4220 was “inactive”.

With `C[C@@H]1CCCCO[C@@H](CN(C)Cc2ccc(Cl)c(Cl)c2)[C@@H](C)CN([C@@H](C)CO)C(=O)c2cc(NS(=O)(=O)c3cn(C)cn3)ccc2O1`, the cytotoxicity call in the assay on HSkMC and in the assay on HepG2 was “inactive” in each case. Further, the growth inhibition call with S. aureus RN4220 was “inactive”.

Take `C[C@H]1CN([C@@H](C)CO)C(=O)Cc2cc(NC(=O)CCC(F)(F)F)ccc2O[C@H]1CN(C)S(=O)(=O)c1ccccc1`: the cytotoxicity call in the assay on HSkMC and with HepG2 was “inactive” each time. Moreover, the growth inhibition call with S. aureus RN4220 is “inactive”.

Take `Cc1noc(C)c1NC(=O)Nc1ccc2c(c1)CC(=O)N([C@H](C)CO)C[C@H](C)[C@H](CN(C)Cc1ccc(Oc3ccccc3)cc1)O2`: the cytotoxicity call in the assay with HSkMC and with HepG2 was “inactive” each time. In the assay on S. aureus RN4220, the growth inhibition call was “inactive”.

Take `O=C(O)CCCCC1SCC2NC(=O)NC21` (stereo not given): the cytotoxicity call with HSkMC and in the assay with HepG2 was “inactive” each time. Moreover, the growth inhibition call with S. aureus RN4220 was “inactive”.

Take `C[C@@H]1CCCCO[C@H](CN(C)Cc2ccc(C(=O)O)cc2)[C@H](C)CN([C@H](C)CO)C(=O)c2cc(NC(=O)NC3CCCCC3)ccc2O1`: the cytotoxicity call in the assay with HSkMC and in the assay on HepG2 was “inactive” throughout. The growth inhibition call in the assay on S. aureus RN4220 was “inactive”.

Take `COc1ccc(CCNC(=O)[C@@]2(c3ccccc3)CC(=O)N(Cc3ccccc3)[C@@H]2c2ccc(COC(=O)NCCCCCC(=O)NO)cc2I)cc1`: the cytotoxicity call in the assay on HSkMC and with HepG2 was “inactive” throughout. The growth inhibition call in the assay on S. aureus RN4220 was “inactive”.

Consider `CC12CCC(=O)C=C1CCC1C2C(O)CC2(C)C1CCC2(O)C(=O)CO` (stereo not given), for which the cytotoxicity call in the assay with HSkMC and with HepG2 was “inactive” throughout. The growth inhibition call with S. aureus RN4220 is “inactive”.

Consider `COc1ccc(NC(=O)N(C)C[C@@H]2Oc3ccc(NC(=O)Nc4ccc(C(F)(F)F)cc4)cc3CC(=O)N([C@H](C)CO)C[C@H]2C)cc1`, for which the cytotoxicity call in the assay with HSkMC and with HepG2 was “inactive” throughout. The growth inhibition call in the assay with S. aureus RN4220 is “inactive”.

As to `Cc1ccc(S(=O)(=O)Nc2ccc3c(c2)C(=O)N([C@H](C)CO)C[C@H](C)[C@@H](CN(C)Cc2ccc(C(=O)O)cc2)OCCCC[C@H](C)O3)cc1`, the cytotoxicity call in the assay with HSkMC and in the assay on HepG2 was “inactive” in each case. Moreover, the growth inhibition call in the assay with S. aureus RN4220 was “inactive”.

`C[C@H]1CN([C@@H](C)CO)C(=O)c2cccc(NC(=O)c3nc4ccccc4s3)c2O[C@H]1CN(C)Cc1ccc(C(=O)Nc2ccccc2N)cc1`: the cytotoxicity call in the assay on HSkMC (human skeletal muscle cells) and in the assay with HepG2 was “inactive” throughout. Further, the growth inhibition call in the assay on S. aureus RN4220 was “inactive”.

As for `C[C@H](CO)N1C[C@H](C)[C@H](CN(C)Cc2ccc(C(=O)O)cc2)Oc2ccc(NC(=O)c3ccncc3)cc2C1=O`, the cytotoxicity call with HSkMC and in the assay with HepG2 was “inactive” throughout. For the same compound, in the assay with S. aureus RN4220, the growth inhibition call is “inactive”.

With `CC(C)N(C)C(=O)c1cccc(NC(=O)c2ccncc2)c1OCCCN(C)Cc1ccc(Oc2ccccc2)cc1`, the cytotoxicity call in the assay with HSkMC and with HepG2 was “inactive” in each case. The growth inhibition call with S. aureus RN4220 was “inactive”.
